# Assay results published in PubChem BioAssay AID1508642 (National Center for Advancing Translational Sciences (NCATS), 2021).
# In all, about 43,000 compounds went through this assay and about 200 (0.47%) were called active. Roughly 12% stayed inconclusive and do not appear here. Calls follow the shape of the dose curve; as a rule, active = well fitted cell-killing curve with a large enough effect; inconclusive = small, poorly fitted or top-dose-only effect, or effect the other way; inactive = flat fitted curve, though single readings scatter. This is one part of the list.
# Test: Cell viability qHTS assay in S16 Pmp22-F2sN cells; also: nearly all actives have a fitted effect of over 65% in size
# Details: S16 Pmp22-F2sN Schwann cells viability, CellTiter-Glo, 24 h; series mostly up to 57.5 µM; activity change, negative = cytotoxicity: at the top concentration
# Summary of the method: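 S16 Pmp22-F2sN Schwann cells (500-1,000/well) in phenol-red-free DMEM with 10% FBS received 23 nL compound by pin tool for 24 h at 37 °C. Viability was then read as CellTiter-Glo luminescence after 15 min at room temperature.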
# % is scaled to controls: 0 for no effect and ±100 for the full control effect; potency is read from the fitted curve at half-maximal effect.
Compound,"activity change, negative = cytotoxicity",Potency
O=C(Cn1c(=O)n(Cc2ccco2)c(=O)c2ccc(C(=O)NC3CCCC3)cc21)Nc1ccc(F)cc1,inactive: 18.5%,–
Cc1cc(C)n(CC(=O)Nc2ccc(F)c(F)c2)c(=O)c1C#N,inactive: 5.99%,–
COc1ccc(C)cc1NC(=O)C(=O)NCCc1sc(-c2ccc(Cl)cc2)nc1C,inactive: 1.05%,–
CCc1noc(-c2ccc(NC(C)c3ccccc3)c([N+](=O)[O-])c2)n1 (centres undefined),inactive: 4.43%,–
CCN(CC)C(=O)C1=C(C)Nc2nc3ccccc3n2C1c1ccc(Br)cc1 (centres undefined),inactive: -10.7%,–
CC(=O)c1cccc(NC(=O)CCS(=O)(=O)c2cc3c(cc2C)NC(=O)CO3)c1,inactive: 1.19%,–
CCOC(=O)c1c(NC(C)=O)c2c3c(sc2n1Cc1nc(-c2ccc(Cl)cc2)oc1C)CCCC3,inactive: 23.1%,–
CCc1ccc(CNC(=O)c2ccc(CSc3nc4ccncc4n3Cc3ccc(OC)cc3)cc2)cc1,inactive: -16.4%,–
COc1ccc(N2CCN(C(=O)Cc3coc4ccc(C)cc34)CC2)cc1,inactive: -3.11%,–
COc1ccc(CCNC(=O)c2sc3nc4n(c(=O)c3c2C)CCCC4)cc1OC,inactive: 7.04%,–
CCc1cccc(C)c1NC(=O)CC1Oc2ccc(C)cc2NC1=O (centres undefined),inactive: 2.72%,–
Cc1ccc(CNC(=O)CCc2c(C)nc3c(c(C)nn3-c3ccccc3)c2C)cc1,inactive: 5.48%,–
COc1ccc(C(=O)c2oc3ccccc3c2NC(=O)COc2ccccc2)cc1,inactive: 21.6%,–
COc1ccc(Cl)cc1NS(=O)(=O)c1cc(Br)cc2c1N(C(=O)C1CC1)CC2,inactive: 2.8%,–
CC(C)n1c(=N)c(C(=O)NCc2cccnc2)cc2c(=O)n3ccccc3nc21,inactive: -1.36%,–
Cc1ccc(NC(=O)C2CCN(c3nc4ccccc4nc3C(F)(F)F)CC2)cc1F,inactive: -4.22%,–
CCOC(=O)c1cc(-c2ccccc2)n(-c2cccc(C(=O)Nc3cccc(F)c3)c2)c1C,inactive: -17.6%,–
COc1ccc(C(=O)Nc2nnc(S(=O)(=O)N3CCCCCC3)s2)cc1OC,inactive: -4.34%,–
Cc1cccc(NC(=O)c2cc(S(=O)(=O)N3CCc4ccccc43)ccc2F)c1C,inactive: -9.04%,–
O=C(Nc1cccc(Cl)c1)N1CCSc2ccccc21,inactive: -2.82%,–
CCN(CC)c1cc(C)c2cc(NC(=O)c3cccc(F)c3)ccc2n1,inactive: -14.9%,–
CSc1ccc(CCNC(=O)c2cnn(-c3ccccc3)c2-n2cccc2)cc1,inactive: -12.2%,–
CCOc1ccccc1NC(=O)c1c(NC(=O)COc2ccccc2)sc2c1CCCCC2,inactive: 0.531%,–
CC(NC(=O)CCCC1=NS(=O)(=O)c2ccccc2N1)c1ccccc1 (centres undefined),inactive: 5.55%,–
Cc1ccc(N2C(=O)CSC23C(=O)N(CC(=O)NCCc2ccccc2)c2ccccc23)cc1C (centres undefined),inactive: -16.8%,–

Compound,"activity change, negative = cytotoxicity",Potency
CCOC(=O)c1cnc2c(ccc3ccccc32)c1Nc1ccccc1OCC,inactive: 1.48%,–
COc1ccc(OC)c(-c2cc(C(=O)NCCc3ccccc3)c3c(-c4ccc(C)cc4)[nH]nc3n2)c1,inactive: -26.4%,–
COCCCNC(=O)CS(=O)Cc1nc(-c2cccc(C)c2)oc1C (centres undefined),inactive: 4.51%,–
CC(C)CS(=O)(=O)c1oc(-c2ccc(F)cc2)nc1S(=O)(=O)c1ccccc1,–,active: 4.47 µM
COc1cccc(Cn2nnc(C(=O)Nc3cc(C)ccc3C)c2N)c1,inactive: -8.83%,–
CCOc1ccc(NC(=O)N2CCC(C(N)=O)(N3CCCCC3)CC2)cc1,inactive: 8.38%,–
COc1ccc(CCNC(=O)c2cnc3ccc(C)cn3c2=O)cc1,inactive: 0.521%,–
CCCS(=O)(=O)c1c(S(=O)(=O)CCC)c2cc(CC)ccn2c1C(=O)c1ccc(OC)cc1,inactive: -14%,–
Cc1ccc2nc(NC(=O)CSc3nccn3Cc3ccc(Cl)cc3)sc2c1,inactive: 9.07%,–
Cc1ccn2c(=O)c(C(=O)NCCc3ccccc3)c(O)nc2c1,inactive: -1.52%,–
O=C(Cn1c(=O)n(Cc2ccccc2)c(=O)c2sc3ccccc3c21)NCc1ccccc1Cl,inactive: 2.13%,–
O=C(CCc1nc(-c2cccs2)no1)Nc1ccccc1[N+](=O)[O-],inactive: -0.849%,–
O=C(NC1CC(=O)N(c2cccc(F)c2)C1)c1ccc(S(=O)(=O)N2CCCC2)cc1 (centres undefined),inactive: 0.45%,–
COc1ccc(Cn2c(=O)[nH]c3cc(C(=O)N4CCN(c5cccc(Cl)c5)CC4)ccc3c2=O)cc1,inactive: 0.767%,–
Cn1c(=O)n(-c2ccc(Br)cc2F)c(=O)c2sc3ccccc3c21,inactive: -1.35%,–
CCOc1ccc(NC(=O)CN2C(=O)C(c3ccccc3)=NC23CCC(C)CC3)cc1 (centres undefined),inactive: -2.53%,–
COc1cc2c(=O)c(S(=O)(=O)c3ccc(F)cc3)cn(Cc3ccc(Cl)cc3)c2cc1OC,inactive: 15.9%,–
CCOC(=O)c1ccc(CN(Cc2ccc(F)cc2)S(=O)(=O)c2cc(C(=O)Nc3cccc(C(F)(F)F)c3)ccc2F)cc1,inactive: -8.32%,–
O=C(NC1CCCCCC1)c1ccc2c(c1)sc1nc(-c3ccc(F)cc3)cn12,inactive: -17.3%,–
CCCN1C(C(=O)c2ccccc2)=C(OC(=O)COc2ccccc2)c2ccccc2S1(=O)=O,inactive: -29.3%,–
Cc1ccc(Cl)cc1NC(=O)C(C)n1nnc2sc3c(c2c1=O)CCCC3 (centres undefined),inactive: 1.02%,–
Cc1cccc(N2CCN(S(=O)(=O)c3ccc4c(c3)CCCN4C(=O)C3CCC3)CC2C)c1 (centres undefined),inactive: -23.9%,–
COc1ccc(C2C(C(N)=O)=C(C)Nc3nc(CCCO)nn32)c(OC)c1 (centres undefined),inactive: -4.5%,–
O=C(Nc1ccc(C(=O)OCc2cc(=O)n3c4c(sc3n2)CCCC4)cc1)c1ccccc1,inactive: 1.73%,–
